The whole screen tested about 310,000 compounds, of which about 2,200 (0.71%) showed an effect of 50% or more. Effects have a minus sign here. The list shows a part of the results.
Each molecule was assayed against human ether-à-go-go-related gene (hERG) potassium channel (human, UniProt Q12809) (assay: primary screen, population patch clamp on CHO cells stably expressing hERG).
human ether-à-go-go-related gene (hERG) potassium channel, sequence (Q12809 whole entry, looked up): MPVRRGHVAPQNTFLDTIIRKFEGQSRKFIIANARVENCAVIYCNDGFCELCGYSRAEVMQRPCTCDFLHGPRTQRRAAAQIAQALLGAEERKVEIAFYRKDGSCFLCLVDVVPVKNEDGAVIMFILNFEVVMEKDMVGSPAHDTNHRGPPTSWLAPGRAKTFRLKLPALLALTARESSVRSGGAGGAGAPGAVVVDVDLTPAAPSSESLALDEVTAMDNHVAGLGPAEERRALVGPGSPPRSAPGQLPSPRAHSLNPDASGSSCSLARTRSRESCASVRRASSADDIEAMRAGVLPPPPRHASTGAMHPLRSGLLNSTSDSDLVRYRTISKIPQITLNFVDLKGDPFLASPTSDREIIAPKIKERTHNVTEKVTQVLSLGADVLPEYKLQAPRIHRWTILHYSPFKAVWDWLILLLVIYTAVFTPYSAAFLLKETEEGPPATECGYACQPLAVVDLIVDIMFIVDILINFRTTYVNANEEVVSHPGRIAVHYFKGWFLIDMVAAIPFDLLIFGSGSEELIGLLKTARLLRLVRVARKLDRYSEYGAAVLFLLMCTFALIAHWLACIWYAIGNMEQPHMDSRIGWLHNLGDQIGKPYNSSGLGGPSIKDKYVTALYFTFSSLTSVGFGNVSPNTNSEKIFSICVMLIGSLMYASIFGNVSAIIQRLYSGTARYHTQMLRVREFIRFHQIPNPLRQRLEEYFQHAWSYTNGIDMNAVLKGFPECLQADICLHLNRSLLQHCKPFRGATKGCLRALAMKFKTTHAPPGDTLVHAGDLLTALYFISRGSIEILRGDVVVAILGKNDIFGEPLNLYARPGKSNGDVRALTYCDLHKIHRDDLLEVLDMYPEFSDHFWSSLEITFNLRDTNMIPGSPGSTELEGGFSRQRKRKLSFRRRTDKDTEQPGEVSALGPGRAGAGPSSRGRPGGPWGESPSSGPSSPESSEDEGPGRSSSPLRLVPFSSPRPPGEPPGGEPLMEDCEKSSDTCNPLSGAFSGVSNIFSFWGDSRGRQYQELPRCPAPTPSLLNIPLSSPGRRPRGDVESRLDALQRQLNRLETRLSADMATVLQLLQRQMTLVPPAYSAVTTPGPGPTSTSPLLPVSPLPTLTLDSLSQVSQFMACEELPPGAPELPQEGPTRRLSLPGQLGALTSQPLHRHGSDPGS

SMILES	hERG current change (%, negative = inhibition) at 1uM [%]
COc1cc(-c2nc3c[n+](CC(=O)c4ccccc4)ccc3n2C)cc(OC)c1OC.[Br-]	4.9
CC(C)N(Cc1nnc(-c2ccccc2Br)o1)C(=O)c1cc(Cl)nc2ccccc12	12
Cn1nc(C(=O)NC2CCCCC2)c2c1-c1ccccc1S(=O)(=O)C2	6.54
COc1cc(C(=O)N=c2sc3c(C)ccc(OC)c3n2C)cc(OC)c1OC	11.8
Cc1ccc(-c2nnn(CC(=O)N(c3ccccc3F)C(CC(C)C)C(=O)NCC3CCCO3)n2)cc1 (centres unmarked)	-3.04
NC(=O)C1CCN(c2nc(-c3ccc(Br)cc3)cs2)CC1	14.8
O=Cc1ccc(-n2cccn2)cc1	6.94
CN(C)S(=O)(=O)c1cc(NC(=O)COC(=O)C2CSC3(C)CCC(=O)N23)ccc1Cl (centres unmarked)	10.1
Cc1noc(C)c1COc1ccc2ccc(=O)oc2c1	7.57
O=C(CSc1nnc(CNC(=O)c2c(F)cccc2F)o1)NCc1ccccc1Cl	14.8
COc1cccc(C(=O)Nc2cccc(NC(=O)c3ccccc3Cl)c2)c1	-21.3
O=C(O)C1C2CCC(O2)C1C(=O)Nc1ccc(F)cc1 (centres unmarked)	8.52
Cc1csc(NC(=O)c2ccc(-c3ccc(Cl)cc3Cl)o2)n1	5.09
CC(=O)c1cccc(NC(=O)C(C)OC(=O)CCN=C2NS(=O)(=O)c3ccccc32)c1 (centres unmarked)	-2.67
Cc1ccc(NC(=O)COC(=O)c2ccc3c(c2)OCO3)c(C)c1	11.1
CCOc1ccccc1N(CC(=O)NCc1ccncc1)S(=O)(=O)c1ccccc1	11.5
CCCn1cc(CN2CCC(n3nccc3NC(=O)CCOc3ccccc3)CC2)c(C)n1	11.1
Cc1cc(C)c(S(=O)(=O)Nc2ncn[nH]2)c(C)c1	-0.561
CCC(Sc1nc(C)cc(=O)[nH]1)C(=O)Nc1nc(-c2ccccc2)cs1 (centres unmarked)	10.7
CCC(=O)Nc1ccc(C(=O)Nc2c[nH]c(=O)[nH]c2=O)cc1	18.8
COC(=O)c1sccc1NC(=O)c1sccc1C	7.85
CCOC(=O)c1ccc(N/N=C/c2cc(Br)cc([N+](=O)[O-])c2O)cc1	15.5

SMILES	hERG current change (%, negative = inhibition) at 1uM [%]
CCc1cc2c(=O)c(-c3ccc4c(c3)OCO4)coc2c(CN(C)C)c1O	15.1
COC(=O)c1ccccc1C(=O)N1CCCC(CNC(=O)c2ccc(F)cc2)C1 (centres unmarked)	16.6
O=C(CCN1C(=O)c2ccccc2S1(=O)=O)Nc1ccc(F)c([N+](=O)[O-])c1	-2.56
CC(C#N)Sc1ncnc2sc(-c3ccccc3)cc12 (centres unmarked)	12
O=C(O)c1cccc(N2C(=O)/C(=C/c3ccc([N+](=O)[O-])cc3)C=C2c2ccccc2)c1	4.68
COc1ccccc1C(c1nnnn1Cc1ccccc1)N1CCC(C(N)=O)CC1.Cl (centres unmarked)	9.67
CN(Cc1ccccc1F)C(=O)c1ccccc1Sc1ccccc1C#N	14.1
Cc1cccc(CN2CCN(C(=O)c3cccc4ccccc34)CC2)c1	10.7
Cc1c(C)n(CCc2ccccc2)c2ncnc(NCCCO)c12	-11.7
NS(=O)(=O)c1cc(C(=O)N=Nc2c(O)[nH]c3ccccc23)ccc1Cl	10
Cc1cccc(NC(=S)N2CCC(c3nc4ccccc4o3)CC2)c1C	0.97
CCN(CC)CC#CC(C)OCOCC#CCOC (centres unmarked)	5.78
Cc1cccc(-n2ccnc2SCC(=O)O)c1C	10.2
COc1cc2[nH]c(=O)n(CCCC(=O)NCCc3ccccc3)c(=O)c2cc1OC	5.07
O=C(COc1ccccc1)NCc1ccccc1	11.7
O=C(CN1C(=O)NC2(CCCC2)C1=O)N1CCN(c2ccccc2Cl)CC1	14.2
CC1=NN(c2nc(-c3ccc(C#N)cc3)cs2)C(=O)C1	5.48
COCCNC(=O)C(c1ccc(F)cc1)N(CCOC)C(=O)CCC(=O)Nc1ccccn1 (centres unmarked)	13.8
CCCCC(CCC(=O)NNC(=O)Cc1ccccc1)C(=O)O (centres unmarked)	1.46
COc1ccccc1NC(=O)CSc1nc(=O)n(Cc2ccncc2)c2c1CCCC2	6.01
O=C(NC1CCCc2ccccc21)C1CCCN(S(=O)(=O)c2cnc[nH]2)C1 (centres unmarked)	6.56
CC(C)CNC(=O)COc1ncnc2sccc12	8.92

SMILES	hERG current change (%, negative = inhibition) at 1uM [%]
COc1ccc(-c2nn(CCC#N)cc2C(=O)Nc2cccc([N+](=O)[O-])c2)cc1OC	-9.87
CSc1ccc(NC(=O)NCCN2CCc3ccccc3C2)cc1	-18.7
Cc1cc(-c2nnc3sc(-c4ccc(Cl)cc4Cl)nn23)n[nH]1	11.5
O=C(NCCNC(=O)C1CC2CCC1C2)C1CC2CCC1C2 (centres unmarked)	5.85
O=C(CN1CCN(Cc2ccc3c(c2)OCO3)CC1)N1CCc2[nH]c3ccc(F)cc3c2C1	-18.5
CC(C)(C)c1cc(C(=O)NCc2cc(F)cc3c2OCOC3)n(Cc2ccccc2)n1	10.3
Cc1ccc(-c2nn(-c3cc(Cl)ccc3[N+](=O)[O-])c(=O)c3ccccc23)cc1C	12.2
Cc1ccc(NC(=O)COC(=O)Cn2cnc3c2c(=O)n(C)c(=O)n3C)cc1Cl	4.08
CC(C)Oc1ccc(C(=O)NCc2cccnc2)cc1	11.9
O=C(Nc1ccccc1)Oc1ccccc1N1CCOCC1	7.21
CC(O)CNc1nc2sc3c(c2c(=O)n1CCc1ccccc1)CCCCC3 (centres unmarked)	12.9
Cc1ccccc1C(=O)N1CCC(C(=O)NN2C(=O)NC3(CCC(C)CC3)C2=O)CC1 (centres unmarked)	0.564
Cc1cccc(NC(=O)c2sc(Cl)nc2-c2ccccc2)c1	28
Cc1nn(CC(=O)NCCCc2ccccc2)c(=O)c2cc3occc3n12	13.2
CC(=O)NC(c1ccc(C(C)C)cc1)c1c(O)ccc2ccccc12 (centres unmarked)	17.5
c1ccc(-c2cnnc3ccccc23)cc1	-0.645
O=C(Nc1ccccn1)c1ccc2ccccc2c1O	11
Cc1ccc(Cn2ncc3c(N4CCN(C5CCCC5)CC4)ncnc32)cc1	-0.0382
N#Cc1cnn2c(-c3ccccc3)ccnc12	10.6
O=C(NCC1CCCCC1)C1CCCN(C(=O)NC2CCCCC2)C1 (centres unmarked)	7.02
CC(C)N(C(=O)CSc1nnc(NC(=O)c2cccs2)s1)C(C)C	10.9
CC1(c2nnc(-c3cccc(Cl)c3)o2)CC(c2ccccc2F)=NO1 (centres unmarked)	8.2

SMILES	hERG current change (%, negative = inhibition) at 1uM [%]
Fc1ccccc1COc1ccc(-c2nnn(Cc3ccccc3F)n2)cc1	10.4
Cc1csc(NC(=O)CCc2c(C)nc3cc(-c4ccc(Cl)cc4)nn3c2C)n1	5.86
Cc1cccc(NC(=O)CSc2nnc(CNC(=O)c3ccco3)n2C)c1C	-4.92
O=C(c1ccco1)N1CCN(c2c([N+](=O)[O-])nn(-c3cccc(Cl)c3)[n+]2[O-])CC1	0.245
Cc1sc(=NC(=O)c2ccco2)n(C)c1-c1ccc(Cl)cc1	-7.79
Cc1ccc(O)c(C(=O)c2cnn(C(=O)COc3ccccc3C#N)c2)c1	6.21
CC1(C)Cc2ccccc2C(NNC(=O)c2cccnc2)=N1	11.1
Cc1cc(Cl)cc(Br)c1OCCCN1C(=O)NC(C)(C)C1=O	15.5
CC1CCCCN1CCCNc1ccc(C(CC(N)=O)NC(=O)c2ccccc2)cc1[N+](=O)[O-] (centres unmarked)	9.54
O/C(=C\c1nc2ccccc2nc1/C=C(\O)c1ccccc1)c1ccccc1	6.79
COc1ccc2c(c1)c(CC(=O)NCc1cc([N+](=O)[O-])ccc1O)c(C)n2C(=O)c1ccc(Cl)cc1	2.96
COC(=O)C1C(c2ccccc2)C(C(=O)N2CCOCC2)C1c1ccccc1 (centres unmarked)	1.69
Cc1ccc(-n2c(C)cc(/C=N\NC(=O)CC(=O)NC(C)C)c2C)cc1	7.36
CO/N=C/NC(=O)N1OC[C@@H]2COc3ccc4ccccc4c3[C@@H]21	11.4
O=C(COc1ccc(F)cc1)N(Cc1ccc(Cl)cc1)C1CCS(=O)(=O)C1 (centres unmarked)	16
C=CCSC1=N/C(=C\C=C\c2ccco2)C(=O)S1	10.4
CCOC(=O)C/C(C)=N/NC(=O)C1CC1(c1ccccc1)c1ccccc1 (centres unmarked)	12.1
CC(C)[C@H](NC(=O)[C@@H]1Cc2ccccc2CN1C(=O)OC(C)(C)C)C(=O)NCc1ccco1	-2.34
O=C(CN(CCc1ccccc1)C(=O)CNS(=O)(=O)c1ccccc1)NCc1ccco1	6.42
CCN(CC(=O)Nc1c(F)cccc1F)C(=O)CNC(=O)c1ccc(C)s1	14.5

— article PMC4336329 (PLoS ONE, 2015)
